# Data: the BET-seq Pho4 binding data (Le et al. 2018)
# Some of the results follow. These are noisy estimates, calculated here from bound and input reads.
# Target: T1, Pho4 (S. cerevisiae) (UniProt P07270)
# T1 sequence: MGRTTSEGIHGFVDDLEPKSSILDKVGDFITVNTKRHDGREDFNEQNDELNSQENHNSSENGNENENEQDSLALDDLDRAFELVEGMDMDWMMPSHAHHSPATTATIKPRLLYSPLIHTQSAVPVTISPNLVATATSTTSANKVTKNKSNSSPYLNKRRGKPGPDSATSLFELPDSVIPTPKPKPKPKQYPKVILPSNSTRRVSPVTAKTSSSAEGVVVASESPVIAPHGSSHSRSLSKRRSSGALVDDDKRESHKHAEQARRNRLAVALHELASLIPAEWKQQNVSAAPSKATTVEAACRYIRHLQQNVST
# Assay: relative binding free energy (BET-seq); higher = weaker binding
# Conditions: reference: library average
row,Sequence,relative binding free energy
1,CATTCCACGTGTTGGG,0.1 kcal/mol
2,ATGTTCACGTGCGGGA,0.24 kcal/mol
3,CGGGGCACGTGGTAAA,-0.16 kcal/mol
4,TTGACCACGTGTGGTA,-0.01 kcal/mol
5,GATCGCACGTGCGGGG,-0.1 kcal/mol
6,GCGGGCACGTGTCGTG,-0.04 kcal/mol
7,TGATTCACGTGCAAGG,0.23 kcal/mol
8,ATTATCACGTGTCAGG,0.03 kcal/mol
9,AGGTACACGTGCGTTG,0.04 kcal/mol
10,GATGGCACGTGTTAAG,-0.02 kcal/mol
11,TGGGGCACGTGGACAA,-0.17 kcal/mol
12,GATTACACGTGGTGTT,0.2 kcal/mol
13,TGATGCACGTGATGGT,0.06 kcal/mol
14,ATAGTCACGTGTAAGT,0.17 kcal/mol
15,ATCTGCACGTGGGTGT,-0.16 kcal/mol
16,TTCTGCACGTGGAGCT,0.15 kcal/mol
17,GGATGCACGTGTCAGT,0.16 kcal/mol
18,GAGATCACGTGGGTTC,0.16 kcal/mol
19,GTCGACACGTGGTGGA,0.04 kcal/mol
20,AGATGCACGTGTTAAT,-0.04 kcal/mol
21,TATCTCACGTGAATGT,0.42 kcal/mol
22,TTGAGCACGTGGGCCG,-0.16 kcal/mol
23,GTATGCACGTGGCATG,-0.14 kcal/mol
24,CTGCGCACGTGGAGGG,-0.19 kcal/mol
25,AAATGCACGTGTAATG,0.04 kcal/mol
26,CGTTTCACGTGTGCGA,0.25 kcal/mol

row,Sequence,relative binding free energy
1,TTGTACACGTGCGGGT,0.07 kcal/mol
2,TTTAGCACGTGGCTTG,-0.05 kcal/mol
3,GGGTGCACGTGTCGGT,0.18 kcal/mol
4,GAGGTCACGTGAGATT,0.41 kcal/mol
5,GTTTCCACGTGGGATG,-0.09 kcal/mol
6,ATAGCCACGTGTTTGG,-0.22 kcal/mol
7,TAGAACACGTGAAGGG,0.25 kcal/mol
8,GAGGGCACGTGTGTTT,-0.07 kcal/mol
9,TGCTACACGTGTATGT,-0.05 kcal/mol
10,GCATACACGTGTGGTT,0.11 kcal/mol
11,TAGTTCACGTGATCGG,0.44 kcal/mol
12,GAGTACACGTGGGACG,0.16 kcal/mol
13,CGATGCACGTGTATGT,-0.04 kcal/mol
14,GGAGGCACGTGATAGA,-0.02 kcal/mol
15,TATAGCACGTGCTTTA,-0.01 kcal/mol
16,AATTACACGTGGTTGT,0.05 kcal/mol
17,CTGGGCACGTGTGTAG,-0.11 kcal/mol
18,CGCGTCACGTGAGGTT,0.22 kcal/mol
19,GTGATCACGTGTGTCG,0.24 kcal/mol
20,TAGGGCACGTGTTACA,-0.12 kcal/mol
21,TTTAACACGTGTGGGC,0.05 kcal/mol
22,CCGGGCACGTGCGTGG,-0.2 kcal/mol
23,TATAACACGTGGGCGG,-0.15 kcal/mol
24,GTGTACACGTGCTGGA,-0.02 kcal/mol
25,GGGTTCACGTGGATCT,0.31 kcal/mol
26,GGGCGCACGTGAGGAT,0.18 kcal/mol

row,Sequence,relative binding free energy
1,GGTAGCACGTGGTGAG,0.01 kcal/mol
2,ATGTGCACGTGTTGGT,0.06 kcal/mol
3,TGTGTCACGTGTAGAT,0.18 kcal/mol
4,ACATTCACGTGAAGTT,0.46 kcal/mol
5,TGGTTCACGTGTTCAG,0.27 kcal/mol
6,TAGGTCACGTGTTATA,0 kcal/mol
7,AACGGCACGTGTTGGA,0.01 kcal/mol
8,TGATGCACGTGATGAA,0.17 kcal/mol
9,GGGGTCACGTGATTTC,0.3 kcal/mol
10,GTATCCACGTGTTTAT,0.1 kcal/mol
11,TAATGCACGTGGATAG,-0.13 kcal/mol
12,ATTTCCACGTGGGGAT,0 kcal/mol
13,AGGGTCACGTGTGTTG,0.13 kcal/mol
14,TTTGTCACGTGATGGG,0.31 kcal/mol
15,TGGGACACGTGATTCG,0.07 kcal/mol
16,GTAACCACGTGGTTTT,-0.01 kcal/mol
17,CGGTGCACGTGTTAGA,-0.06 kcal/mol
18,GTGTGCACGTGGGGCG,-0.08 kcal/mol
19,GTTTACACGTGCGAAG,0.21 kcal/mol
20,TGAGTCACGTGCGATT,0.05 kcal/mol
21,AGTTGCACGTGGTGAT,-0.05 kcal/mol
22,TTTTGCACGTGTACTA,0.02 kcal/mol
23,AGGCTCACGTGTGGGC,0.15 kcal/mol
24,GCTGGCACGTGTCGTT,-0.03 kcal/mol
25,ATTTTCACGTGGTTTG,0.29 kcal/mol
26,TGTGTCACGTGCTGGT,0.03 kcal/mol

row,Sequence,relative binding free energy
1,TATAGCACGTGTAGGT,0.02 kcal/mol
2,CTGATCACGTGTGATG,0.16 kcal/mol
3,AGTGTCACGTGGGTGA,-0.1 kcal/mol
4,GGTGTCACGTGTTGAC,0.15 kcal/mol
5,GCATACACGTGGGTTT,0.03 kcal/mol
6,CTGTGCACGTGAGCTG,0.21 kcal/mol
7,AGTTGCACGTGGAAAT,0.07 kcal/mol
8,TGGGACACGTGGTCGT,-0.1 kcal/mol
9,GATACCACGTGGTTTG,-0.02 kcal/mol
10,GTTAGCACGTGAGCAG,0.16 kcal/mol
11,TAAGCCACGTGTGGGG,-0.05 kcal/mol
12,AGGTTCACGTGCTAAG,0.21 kcal/mol
13,GTAGACACGTGGGAAT,-0.02 kcal/mol
14,ATGTGCACGTGTGCGA,-0.07 kcal/mol
15,GTTTGCACGTGTACTA,0.18 kcal/mol
16,AGCGTCACGTGTAGTG,0.13 kcal/mol
17,TTCGTCACGTGGGCAG,0.02 kcal/mol
18,CGGGGCACGTGTGAGG,-0.02 kcal/mol
19,TCGTTCACGTGGGAGA,0.23 kcal/mol
20,TGTATCACGTGCTTTG,0.07 kcal/mol
21,GCGGACACGTGTGAGG,0.01 kcal/mol
22,AAACTCACGTGGGTTG,0.16 kcal/mol
23,TTGGTCACGTGTTCGC,0.14 kcal/mol
24,ATGGTCACGTGTGCTG,0.14 kcal/mol
25,TTTTGCACGTGTCGCT,0.03 kcal/mol
26,GTTAGCACGTGGGATA,0.04 kcal/mol

row,Sequence,relative binding free energy
1,CGTATCACGTGGTTGG,0.06 kcal/mol
2,TGCGGCACGTGAAGGA,0.07 kcal/mol
3,TACGGCACGTGGACGG,-0.05 kcal/mol
4,GCGGGCACGTGCTTGG,-0.1 kcal/mol
5,CGGATCACGTGGATTT,0.39 kcal/mol
6,TAGGGCACGTGAGGTA,0.12 kcal/mol
7,GTGAGCACGTGCGTAT,-0.2 kcal/mol
8,AGTGCCACGTGCTTGT,-0.01 kcal/mol
9,GCGTTCACGTGATCGT,0.33 kcal/mol
10,GGGTACACGTGCGGAG,0.04 kcal/mol
11,TTGTCCACGTGGTGAT,0.08 kcal/mol
12,GTTGTCACGTGGAAAT,0.08 kcal/mol
13,TTCTGCACGTGTTATT,-0.02 kcal/mol
14,GGTTCCACGTGTTATG,0.17 kcal/mol
15,ATTCTCACGTGGTTGA,0.43 kcal/mol
16,TTGGCCACGTGAGGTA,0.13 kcal/mol
17,CTGCTCACGTGTGGTT,0.09 kcal/mol
18,AGTATCACGTGCCGGT,0.15 kcal/mol
19,GTTAGCACGTGTATTA,-0.05 kcal/mol
20,GGCAACACGTGTAGGT,0 kcal/mol
21,TTTTTCACGTGTTGCT,0.28 kcal/mol
22,TAAGGCACGTGCTGCG,-0.14 kcal/mol
23,ATTGCCACGTGGATGT,-0.19 kcal/mol
24,AAGGGCACGTGCTTGA,-0.18 kcal/mol
25,GAATGCACGTGTTCGG,0.1 kcal/mol
26,TATTTCACGTGGTACT,0.24 kcal/mol

row,Sequence,relative binding free energy
1,TTATACACGTGAGTGT,0.34 kcal/mol
2,TCATGCACGTGTGGCT,-0.1 kcal/mol
3,TAAAGCACGTGATGAT,0.06 kcal/mol
4,GAAGTCACGTGGTTAT,0.12 kcal/mol
5,TTAAGCACGTGCGGCG,-0.14 kcal/mol
6,TCTATCACGTGTTTTG,0.07 kcal/mol
7,TCGTGCACGTGTAGGA,0.02 kcal/mol
8,CGGGTCACGTGCTGTT,0.14 kcal/mol
9,ATTGCCACGTGTTGTT,-0.07 kcal/mol
10,ATGGACACGTGGGGTA,-0.1 kcal/mol
11,GATATCACGTGCGGTA,0.19 kcal/mol
12,AATGGCACGTGCGGAG,-0.16 kcal/mol
13,GGTGTCACGTGGGCAG,0.01 kcal/mol
14,TCTAGCACGTGGGGAT,-0.19 kcal/mol
15,AAGAGCACGTGGTGCG,-0.3 kcal/mol
16,ACGGGCACGTGTTGGC,-0.03 kcal/mol
17,GTGTGCACGTGATCTT,0.1 kcal/mol
18,AGTTACACGTGGATGG,0.12 kcal/mol
19,GGTCACACGTGTGGGC,0.1 kcal/mol
20,GTGGCCACGTGGCGAG,-0.22 kcal/mol
21,GGATCCACGTGTGGAT,0.14 kcal/mol
22,AGGTTCACGTGGCAGG,0.16 kcal/mol
23,TGGGCCACGTGAGATT,0.12 kcal/mol
24,GGGAGCACGTGAGGGT,0.19 kcal/mol
25,GTACTCACGTGGGGCG,0.13 kcal/mol
26,GGTGCCACGTGGATTT,0 kcal/mol

row,Sequence,relative binding free energy
1,GTTGGCACGTGGCCGT,-0.31 kcal/mol
2,GGCCTCACGTGTGGGC,0.25 kcal/mol
3,TAATCCACGTGTTGTG,0.02 kcal/mol
4,GGCTGCACGTGTTGCG,0.08 kcal/mol
5,ATCCGCACGTGGGTGT,-0.21 kcal/mol
6,GGAAGCACGTGTCTTT,0 kcal/mol
7,ATTGTCACGTGAAAAA,0.35 kcal/mol
8,TGGATCACGTGAGTTA,0.39 kcal/mol
9,ATTTTCACGTGATCTT,0.3 kcal/mol
10,GGAAGCACGTGATTGT,0.02 kcal/mol
11,GGGTACACGTGTGAGG,0.12 kcal/mol
12,GGCAACACGTGGGGAT,-0.09 kcal/mol
13,GTTTGCACGTGAAGGG,0.34 kcal/mol
14,TTGAACACGTGGGTAT,-0.14 kcal/mol
15,AGTGCCACGTGATGTT,-0.04 kcal/mol
16,AGAAACACGTGGGAGG,-0.04 kcal/mol
17,AGCGGCACGTGTGAAA,0.1 kcal/mol
18,GTGAGCACGTGGGGTC,-0.2 kcal/mol
19,CGTGTCACGTGAAGGG,0.36 kcal/mol
20,CGCGGCACGTGTTGGA,-0.06 kcal/mol
21,GGTGTCACGTGGTCTG,0.04 kcal/mol
22,GAAGTCACGTGGTGTT,0.15 kcal/mol
23,GTGAGCACGTGTTTTA,-0.06 kcal/mol
24,TGGTGCACGTGCTTGT,-0.1 kcal/mol
25,CGTTTCACGTGCATGT,0.28 kcal/mol
26,GCGTGCACGTGCTTGG,-0.05 kcal/mol

row,Sequence,relative binding free energy
1,TAGCGCACGTGGGAGG,-0.26 kcal/mol
2,CTATCCACGTGGGGGT,-0.12 kcal/mol
3,TTTTTCACGTGACAAG,0.47 kcal/mol
4,GCGGTCACGTGTCTGG,0.18 kcal/mol
5,AGCTGCACGTGAGGGT,0.17 kcal/mol
6,GGTTGCACGTGGAGGA,0.06 kcal/mol
7,TTGTTCACGTGGTCTG,0.15 kcal/mol
8,AGTGTCACGTGGTCTT,-0.15 kcal/mol
9,AGTACCACGTGGTGGG,-0.28 kcal/mol
10,TTTATCACGTGGTCTA,-0.05 kcal/mol
11,CGGGGCACGTGTAATT,0.16 kcal/mol
12,TTTGACACGTGGTCCG,-0.08 kcal/mol
13,ATGGACACGTGGGACG,-0.02 kcal/mol
14,TTACGCACGTGGGGAT,-0.28 kcal/mol
15,GTGTTCACGTGGACGT,0.32 kcal/mol
16,TGTCACACGTGTGGTT,0.09 kcal/mol
17,TTAGACACGTGGTGCT,-0.13 kcal/mol
18,TGAACCACGTGGTGGG,-0.06 kcal/mol
19,GGTCGCACGTGTGACG,0.11 kcal/mol
20,GGTTTCACGTGTAGAA,0.38 kcal/mol
21,GTTTACACGTGTGAAA,0.12 kcal/mol
22,ATTGGCACGTGATTTT,-0.02 kcal/mol
23,TGTGACACGTGGTGAG,-0.04 kcal/mol
24,ATTAACACGTGGAAGG,0.16 kcal/mol
25,GGGTACACGTGAGGAG,0.41 kcal/mol
26,ACTTGCACGTGGTTCG,0.02 kcal/mol

row,Sequence,relative binding free energy
1,CGTGACACGTGTGAGT,0.13 kcal/mol
2,AAATTCACGTGATGAT,0.41 kcal/mol
3,GTTTGCACGTGAGCGT,0.09 kcal/mol
4,TATGTCACGTGGATGA,0.07 kcal/mol
5,ATGGGCACGTGCGTAG,-0.14 kcal/mol
6,CTTGTCACGTGATGCG,0.24 kcal/mol
7,TGGTTCACGTGGGGCA,0.25 kcal/mol
8,GTTGTCACGTGAAGAG,0.29 kcal/mol
9,TAGGGCACGTGTTAAT,0.01 kcal/mol
10,TAGGTCACGTGAATAG,0.21 kcal/mol
11,GGTGTCACGTGGAGGG,0.17 kcal/mol
12,TCAGGCACGTGGCATG,-0.15 kcal/mol
13,TGTAACACGTGCGAGT,-0.05 kcal/mol
14,GCATTCACGTGAGTTG,0.49 kcal/mol
15,AAGTGCACGTGGCTTG,-0.06 kcal/mol
16,AGAGGCACGTGCGATT,-0.05 kcal/mol
17,TATTACACGTGCTGGG,0.15 kcal/mol
18,TTTTCCACGTGGGATG,0.01 kcal/mol
19,TTGTGCACGTGTTTCG,0.01 kcal/mol
20,AGGGTCACGTGGAGTT,0.15 kcal/mol
21,GAGTGCACGTGTGTGA,0.08 kcal/mol
22,TATATCACGTGCTGGA,0.08 kcal/mol
